The results in this text go back to PMC4207660, “Identification and Characterization of Hundreds of Potent and Selective Inhibitors of Trypanosoma brucei Growth from a Kinase-Targeted Library Screening Campaign” (PLoS Neglected Tropical Diseases, 2014).

In brackets after ≈: the same amount, converted by molar mass. Read-outs that look alike come from different tables or passages of the source.

Series [1] concerns T. brucei brucei parasites (Lister 427 strain). Put plainly: Dose response growth inhibition assay (resazurin, 72 h). The format is cell-based. The conditions noted are these: Trypanosoma brucei; T. b. brucei growth inhibition; read-out: Tbb pEC50 (converted). Here is the method:
Greiner sterile black clear bottom 384-well assay plates were pre-dispensing with 200 nL of compound in each well, from master plates at 1 mM (100% DMSO) containing selection from the GSK compound collection. Controls of 0% response (control 1, 200 nL of 100%DMSO) and 100% response (control 2, 200 nL of 1 mM pentamidine) were included in each assay plate in columns 6 and 18, respectively. Plates containing 200 nL of 100% DMSO were included randomly in the assay, to assess quality through all process. […] After this period, 10 µL of 200 µM resazurin solution in prewarmed HMI-9 were added to each well, and plates were allowed to incubate 2 hours more prior fluorescence reading in a Wallac EnVision Multilabel Plate Reader (Perkin-Elmer). Raw fluorescent data from the Envision plate reader were uploaded into GSK HTS database (ActivityBase). Activity of each well was normalized as a percentage of inhibition per-plate basis using the following equation: [drawing 1]
For dose-response experiments, serial compound dilutions of selected hits from the primary campaign were plotted against compound concentration. Dose response master plates were prepared by 3-fold dilutions (starting with 10 mM DMSO stock solutions), providing 11 concentrations. From these master plates, 200 nL per well was stamped in final assay plates, including the same controls describe in the primary single shot assay. Compounds were dispensed as serial dilution curve format, with 11 points at 3-fold dilution and 40 µM as starting top concentration (n = 2). Growth inhibition assay was performed as described in previous assay.
A 4-parameter equation describing a sigmoidal dose-response curve was then fitted with an adjustable baseline using ActivityBase XE Runner software. Fitting of dose-response curves and EC50 determination were normalized as percentage of inhibition based on controls. The curve-fit model was based on a 4-parameter equation: [drawing 2]
Trypanosome cell culture. […]
(Alamar Blue is a resazurin reagent that responds to reducing activity.)

The nature of series [2]: CLND kinetic solubility assay. The conditions noted are these: phosphate buffered saline, pH 7.4, aqueous buffer, kinetic from dmso stock; Measured; read-out: Aq Sol. The format is physicochemical. The protocol: 5 µL of 10 mM DMSO stock solution was diluted to 100 µL with pH 7.4 phosphate buffered saline, equilibrated for 1 hour at room temperature, filtered through Millipore MultiscreenHTS-PCF filter plates (MSSL BPC). The filtrate was quantified by suitably calibrated flow injection Chemi-Luminescent Nitrogen Detection.

For series [3], the target named is T1, Human Serum Albumin (HSA) (Homo sapiens, UniProt P02768).
T1 construct: purchased Chiral Technologies, France
Put plainly: Protein binding assay (HPLC stationary phase), HSA. The format is in vitro ADME. The conditions noted are these: Measured. The protocol:
Chemically bonded Human Serum Albumin (HSA) and Alpha-1-acidglycoprotein HPLC stationary phases (Chiral Technologies, France) were used for measuring compounds' binding to plasma proteins, applying linear gradient elution up to 30% iso-propanol. The run time was 6 min, including the re-equilibration of the stationary phases with the 50 mM pH7.4 ammonium acetate buffer. The obtained gradient retention times were standardised using a calibration set of mixtures as described in the references. The average standard error of the assay depends on the binding strength and kinetics of the compounds.

For series [4], the target named is Cytochrome P450 (CYP450) (Homo sapiens, UniProt P08684). In words: Cytochrome P450 inhibition profile. The format is in vitro ADME. The settings on record: Measured. The protocol: The P450 inhibition profile of the inhibitors was determined as previously described.
A short description of series [5]: ChromlogD assay. Here is the method:
The Chromatographic Hydrophobicity Index (CHI)[22] values were measured using reversed phase HPLC column (Luna C18 (2), Phenomenex, UK) with a fast acetonitrile gradient at starting mobile phase of pH = 7.4. CHI values are derived directly from the gradient retention times by using a calibration line obtained for standard compounds. The CHI value approximates to the volume % organic concentration when the compound elutes. […] The average error of the assay is ±3 CHI unit or ±0.25 ChromlogD.

The mark [6] stands for this setting: CYP3A4, VG substrate, read-out: CYP3A4VG pXC50 (converted).
Setting [7] is: CYP3A4, VR substrate, read-out: CYP3A4VR pXC50 (converted).

Turning to `Cc1cc([C@H](C)Oc2ccccc2)c2nc(N3CCOCC3)cc(=O)n2c1` [NEU-0001128], the EC50 in series [1] is 501 nM. In addition, the solubility kinetic at 1 h in series [2] turned out to be 202 µM (≈ 73.8 µg/mL). The molecule also showed an HSA % binding in series [3] of 93.59%. For the same molecule, the IC50 in series [4] (setting [6]) was 10000 nM; in series [4] (setting [7]), > 50100 nM.
Regarding `Nc1nc(Nc2ccc(S(N)(=O)=O)cc2)sc1C(=O)c1c(F)cccc1F` [NEU-0001158], in series [1], the EC50 is 398 nM. The solubility kinetic at 1 h in series [2] was determined as 230 µM (≈ 94.4 µg/mL). Besides, the IC50 in series [4] (setting [6]) was 1580 nM; in series [4] (setting [7]), 50100 nM.
`COCc1ccc(-c2cc(C(N)=O)c3[nH]cc(C4CCS(=O)(=O)CC4)c3c2)o1` [NEU-0001192]: in series [1], the EC50 was 316 nM. Further, in series [3], the HSA % binding is on record as 89.2%.
`COc1cc(Nc2ncc3c(C)nc(-c4ccco4)n3n2)cc(OC)c1OC` [NEU-0001195] gave a PFI in series [5] of 8.15.
